Test in all cases: Primary Screen for Target Class Profiling of Small Molecule Inhibitors of Methyltransferases
Test [1] addresses Glycine N-methyltransferase (Homo sapiens) (UniProt Q14749). The settings on record: purified enzyme, MTase-Glo SAH luminescence; measured here: GNMT inhibition; at 40 µM; stronger effect = lower value. Put shortly:
(§1)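 Each enzyme was reacted with SAM and its substrate, with compounds tested once at 40 uM; SAH formed was read by MTase-Glo luminescence.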

For test [2], the target named is Guanidinoacetate N-methyltransferase (Homo sapiens) (UniProt Q14353). The conditions noted are these: purified enzyme, MTase-Glo SAH luminescence; measured here: GAMT inhibition; at 40 µM; stronger effect = lower value. Put shortly:
as §1

Test [3] deals with Histamine N-methyltransferase (Homo sapiens) (UniProt P50135). The conditions noted are these: purified enzyme, MTase-Glo SAH luminescence; measured here: HNMT inhibition; at 40 µM; stronger effect = lower value. In a few lines:
as §1

Test [4] has as its target Nicotinamide N-methyltransferase (Homo sapiens) (UniProt P40261). The settings on record: purified enzyme, MTase-Glo SAH luminescence; measured here: NNMT inhibition; at 40 µM; stronger effect = lower value. Put shortly:
as §1

Test [5] has as its target Phenylethanolamine N-methyltransferase (Homo sapiens) (UniProt P11086). The conditions noted are these: purified enzyme, MTase-Glo SAH luminescence; measured here: PNMT inhibition; at 40 µM; stronger effect = lower value. In a few lines:
as §1

The list shows a part of the results. Shown are side measurements of this screen, not its main read-out; they come without a call.
On the % scale 0 is the no-effect control and ±100 the full control effect.

On to `Cc1cccc(NC(=O)N2CCn3cccc3C2Cc2ccccc2)c1` (stereo not given), for which the activity change, negative = inhibition in test [1] stood at 5.58%; in test [2], 0%; in test [3], 4.9%; in test [4] it was 1.44%; in test [5] it was 0.597%.
On the same counts, the results for `Cc1ccc([C@@H]2CN(C(=O)c3c(-c4ccccc4)noc3C)C[C@H]2N(C)C)cc1` are -3.71%, -2.68%, -3.04%, -2.24% and 1.29%.
Take `N#CC1C(=O)Nc2scc(-c3ccc(-c4ccccc4O)cc3)c2C1=O` (stereo not given): the activity change, negative = inhibition in test [1] was -29.6%; in test [2], -5.6%; in test [3], 4.9%; in test [4] it was -39.5%; in test [5], -5.26%.
On the same counts, the results for `Cc1ccc2c(c1)N(CC(=O)N1[C@@H]3CC[C@H]1CNC(=O)C3)C(=O)CO2` are -1.86%, -2.02%, 0.463%, -6.84% and -7.12%.
On the same counts, the results for `CC(C)=CCC[C@](C)(O[C@@H]1O[C@H](CO[C@@H]2O[C@@H](CO)[C@H](O)[C@H]2O)[C@@H](O)[C@H](O)[C@H]1O)[C@H]1CC[C@]2(C)[C@@H]1[C@H](O)C[C@@H]1[C@@]3(C)CC[C@H](O[C@@H]4O[C@H](CO)[C@@H](O)[C@H](O)[C@H]4O[C@@H]4O[C@H](CO)[C@@H](O)[C@H](O)[C@H]4O)C(C)(C)[C@@H]3CC[C@]12C` are -4.17%, 10%, 8.19%, 0.712% and 4.39%.
Turning to `CCN1C(=O)c2cc(C(=O)N3CCN(c4cccc(OC)c4)CC3)nn2CC1(C)C(=O)NC1CCCC1` (stereo not given), the activity change, negative = inhibition in test [1] was found to be 1.19%; in test [2] it was 1.26%; in test [3], 0.171%; in test [4], 5.21%; in test [5] it was 3.25%.
Taken in the same sequence, the figures for `Cc1ccc(CNS(=O)(=O)c2ccc3[nH]c4c(c3c2)CCCC4)o1` were -1.91%, 4.43%, -1.64%, -4.33% and -3%.
On the same counts, the results for `CC(=O)c1ccc(S(=O)(=O)NC(=O)NC2CCCCC2)cc1` are 8.45%, 8.84%, 12.3%, -1.24% and 3.51%.
Taken in the same sequence, the figures for `CC(C)(C)C(=O)N1CCC(N2CCCC(C(=O)NCc3ccccc3)C2)CC1` (stereo not given) were -0.735%, -0.612%, 0.915%, 0.383% and -1.05%.
Take `COc1ccc(CNC(=O)c2cc3n(n2)CC(C)(C(=O)NCc2ccccc2)N(C)C3=O)cc1OC` (stereo not given): the activity change, negative = inhibition was determined as 3.67% in test [1]; 4.86% in test [2]; 7.39% in test [3]; 4.47% in test [4]; 4.03% in test [5].
On the same counts, the results for `CCCn1c(=O)c2ccccc2n2c(=O)n(CC(=O)Nc3cccc(F)c3)nc12` are 1.96%, 0%, 7.55%, 3.06% and 4.57%.
For the compound `O=c1c2ccccc2n2c(SCc3ccccc3F)nnc2n1CCc1ccccc1`, the activity change, negative = inhibition in test [1] is -4.27%; in test [2] it was 7.07%; in test [3], -0.889%; in test [4] it was -10.7%; in test [5], -4.09%.
On the same counts, the results for `CCCN1C(=O)c2c(C(=O)NCc3cc(OC)ccc3OC)ncn2CC1(C)C(=O)NC1CCCC1` (stereo not given) are -1.02%, 4.07%, 5.79%, 1.25% and 5.12%.
Taken in the same sequence, the figures for `CSc1ccc(CCN2C(=O)c3cc(-c4ccccc4)nn3CC2(C)C(=O)NCc2ccccc2)cc1` (stereo not given) were 4.53%, 0%, 3.58%, 1.4% and -14.9%.
On the same counts, the results for `CCOC(=O)c1cc2n(n1)CC(C)(C(=O)NCc1ccccc1OC)N(c1cc(OC)cc(OC)c1)C2=O` (stereo not given) are 0.694%, 1.01%, 4.86%, -1.41% and 0.307%.
Turning to `CCN(CC)CC(O)Cn1c2c(c3cc(C)ccc31)CCCC2=O` (stereo not given), the activity change, negative = inhibition in test [1] was -15.4%; in test [2], -1.64%; in test [3], -0.851%; in test [4], 2.28%; in test [5], -5.86%.
Regarding `CC(O)(C(=O)C1CC1(CO)COC1OC(CO)C(O)C(O)C1O)C1C(O)CC2C3CC=C4CC(O)CC(O)C4(C)C3C(O)CC21C` (stereo not given), the activity change, negative = inhibition in test [1] is 1.16%; in test [2], 3.06%; in test [3], 6.26%; in test [4], -6.26%; in test [5], 6.12%.
Regarding `CCOC(=O)C1CCN(S(=O)(=O)c2cccc(-c3nc(-c4ccccc4)no3)c2)CC1`, the activity change, negative = inhibition was -1.5% in test [1]; -0.051% in test [2]; -5.92% in test [3]; -19.4% in test [4]; -8.37% in test [5].
On the same counts, the results for `CCSC(=N)N` are 3.62%, 6.96%, -7.99%, -13.1% and -5.09%.
On the same counts, the results for `O=C(O)C1Cc2c([nH]c3ccccc23)C(c2ccccc2Br)N1` (stereo not given) are -20.3%, -0.128%, -9.86%, -10.1% and -7.4%.
In the case of `O=C1NCCOCCCN(C(=O)NCCc2ccccc2)[C@H]2CCCC[C@@H]12`, the activity change, negative = inhibition in test [1] was -3.31%; in test [2], -2.4%; in test [3] it was -18.3%; in test [4], -5.66%; in test [5], -0.625%.
Taken in the same sequence, the figures for `COC(=O)C1=CO[C@@H](O)C2C(CO)=CCC12` (stereo not given in full) were 1.99%, 7.46%, 12.4%, -2.94% and 9.25%.
`CC(C)(O)C1CCC2(C)CCCC(C)(O)C2C1` (stereo not given): the activity change, negative = inhibition was 6.67% in test [1]; 2.66% in test [2]; 10.2% in test [3]; -7.56% in test [4]; -0.415% in test [5].
On the same counts, the results for `CCc1ccc(CN2C(=O)c3cc(-c4ccccc4)nn3CC2(C)C(=O)NCc2ccccc2OC)cc1` (stereo not given) are 2.4%, 1.18%, 5.04%, 4.56% and -0.917%.
In the case of `CC[C@@H](C)[C@H](NC(=O)[C@H](CC1CCCCC1)NC(=O)c1ccno1)C(=O)N1CCC2(CCc3ccccc32)CC1`, the activity change, negative = inhibition in test [1] is -0.949%; in test [2] it was -27.4%; in test [3] it was 5.23%; in test [4] it was -43.5%; in test [5] it was -21.1%.
Taken in the same sequence, the figures for `O=C(CCc1nnc2n(CCc3ccccc3)c(=O)c3ccccc3n12)NCCN1CCOCC1` were 2.11%, 0%, 6.68%, 13.7% and 1.47%.
On the same counts, the results for `Cn1c(=O)c2ccc(C(=O)NC3CCCCC3)cc2n2c(=O)n(CC(=O)c3ccc(Cl)cc3)nc12` are 2.42%, 0.749%, 4.93%, -2.16% and -0.724%.
Regarding `COc1ccc(Cl)cc1NC(=O)c1ncn2c1C(=O)N(C1CC1)C(C)(C(=O)NCc1ccc(F)cc1)C2` (stereo not given), the activity change, negative = inhibition is -0.363% in test [1]; 0.673% in test [2]; -9.96% in test [3]; -14.1% in test [4]; 8.49% in test [5].
Taken in the same sequence, the figures for `CC(C)CCC(=O)CC1c2ccccc2C(=O)N1c1ccc2ccc(Cl)nc2n1` (stereo not given) were 0.735%, -7.17%, 7.17%, -20.3% and -3.96%.

The values are drawn from PubChem BioAssay AID1745853 (National Center for Advancing Translational Sciences (NCATS), 2022).
